{
  "source": "the supplement of paper PMC8728848",
  "binders": {"B1": {"name": "GS7807H-bfa-490-18-490 (Bacteroides fragilis) (protein)", "chain": "GNLEEMNIDPDNATQTHPKLLLTQICMNAFKRGTDGMYATKKVIQADGESADQYYKWTRGSFGYYDNLRNVQKMGEEAERVNAPVYTALTKFFRAYYFYELTLRFGDIPYSQALKGEKEEIYTPEYDAQEDVFAGILQELREADEILANDASVIDGDIIYNGNSTQWRKLINSFRLKVLMTLSNHTTVGNINIASEFKNIATNSPLMNSLADNGQLVYLDQQGNRYPQFNAQWSGYYMDDTFIQRMRERRDPRLFIFSAQTNKGKTEGKPIDDFSSYEGGDPAAPYSDAIIKVSEGTISPINDRFRTDPIVEPTMLMGYAELQQILAEAVVRGWISGNAQTYYEKGIRASFSFYETHAKDYAGYLNENAVAQYLKEPLVDFTQASGTEEQIERIIMQKYLVTFYQGNWDSFYEQLRTGYPDFRRPAGTEIPKRWMYPQGEYDNNGTNVETAITRQFGAGNDKINQATWWQKKS"}},
  "experiment_in_all_cases": "glycan array binding signal (z-score within array); higher = stronger binding",
  "settings_in_all_cases": "glycan notation: IUPAC condensed, linker removed",
  "key": {"[1]": {"biological_target": "Fuc(a1-2)Gal(b1-4)GlcNAc(b1-3)Gal(b1-4)GlcNAc(b1-3)Gal(b1-4)GlcNAc", "procedure,_shortened": "(§1)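 The binding signal is a Z-score computed within each array and averaged over linkers. Arrays of the same protein sequence at different concentrations or buffers were also averaged together. Data originate from 3228 arrays in the Consortium for Functional Glycomics database, kept only where the protein sequence was available.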"}, "[2]": {"biological_target": "Fuc(a1-2)Gal(b1-4)GlcNAc(b1-3)GalNAc", "procedure,_shortened": "as §1"}, "[3]": {"biological_target": "Fuc(a1-2)Gal(b1-4)GlcNAc(b1-3)[Fuc(a1-2)Gal(b1-4)GlcNAc(b1-6)]GalNAc", "procedure,_shortened": "as §1"}, "[4]": {"biological_target": "Fuc(a1-2)Gal(b1-4)GlcNAc(b1-3)[Fuc(a1-3)[Gal(b1-4)]GlcNAc(b1-6)]Gal(b1-4)Glc", "procedure,_shortened": "as §1"}, "[5]": {"biological_target": "Fuc(a1-2)Gal(b1-4)GlcNAc(b1-6)GalNAc", "procedure,_shortened": "as §1"}, "[6]": {"biological_target": "Fuc(a1-2)Gal(b1-4)GlcNAc6S", "procedure,_shortened": "as §1"}, "[7]": {"biological_target": "Fuc(a1-2)Gal(b1-4)[Fuc(a1-3)]GlcNAc", "procedure,_shortened": "as §1"}, "[8]": {"biological_target": "Fuc(a1-2)Gal(b1-4)[Fuc(a1-3)]GlcNAc(b1-2)Man(a1-3)[Fuc(a1-2)Gal(b1-4)[Fuc(a1-3)]GlcNAc(b1-2)Man(a1-6)]Man(b1-4)GlcNAc(b1-4)[Fuc(a1-6)]GlcNAc", "procedure,_shortened": "as §1"}, "[9]": {"biological_target": "Fuc(a1-2)Gal(b1-4)[Fuc(a1-3)]GlcNAc(b1-2)[Fuc(a1-2)Gal(b1-4)[Fuc(a1-3)]GlcNAc(b1-4)]Man(a1-3)[Fuc(a1-2)Gal(b1-4)[Fuc(a1-3)]GlcNAc(b1-2)Man(a1-6)]Man(b1-4)GlcNAc(b1-4)GlcNAc", "procedure,_shortened": "as §1"}, "[10]": {"biological_target": "Fuc(a1-2)Gal(b1-4)[Fuc(a1-3)]GlcNAc(b1-3)Gal(b1-4)[Fuc(a1-3)]GlcNAc", "procedure,_shortened": "as §1"}, "[11]": {"biological_target": "Fuc(a1-2)Gal(b1-4)[Fuc(a1-3)]GlcNAc(b1-3)Gal(b1-4)[Fuc(a1-3)]GlcNAc(b1-3)Gal(b1-4)[Fuc(a1-3)]GlcNAc", "procedure,_shortened": "as §1"}, "[12]": {"biological_target": "Fuc(a1-2)Gal(b1-4)[Fuc(a1-3)]GlcNAc(b1-3)GalNAc", "procedure,_shortened": "as §1"}, "[13]": {"biological_target": "Fuc(a1-2)Gal(b1-4)[Fuc(a1-3)]GlcNAc(b1-3)[Neu5Ac(a2-6)Gal(b1-4)GlcNAc(b1-6)]Gal(b1-4)Glc", "procedure,_shortened": "as §1"}, "[14]": {"biological_target": "Fuc(a1-2)Gal3S(b1-4)GlcNAc", "procedure,_shortened": "as §1"}, "[15]": {"biological_target": "Fuc(a1-2)Gal6S(b1-3)GlcNAc", "procedure,_shortened": "as §1"}, "[16]": {"biological_target": "Fuc(a1-2)Gal6S(b1-3)GlcNAc6S", "procedure,_shortened": "as §1"}, "[17]": {"biological_target": "Fuc(a1-2)Gal6S(b1-4)Glc", "procedure,_shortened": "as §1"}, "[18]": {"biological_target": "Fuc(a1-2)Gal6S(b1-4)Glc6S", "procedure,_shortened": "as §1"}, "[19]": {"biological_target": "Fuc(a1-2)[Gal(a1-3)]Gal", "procedure,_shortened": "as §1"}, "[20]": {"biological_target": "Fuc(a1-2)[Gal(a1-3)]Gal(b1-3)GalNAc", "procedure,_shortened": "as §1"}, "[21]": {"biological_target": "Fuc(a1-2)[Gal(a1-3)]Gal(b1-3)GalNAc(b1-3)Gal(a1-4)Gal(b1-4)Glc", "procedure,_shortened": "as §1"}, "[22]": {"biological_target": "Fuc(a1-2)[Gal(a1-3)]Gal(b1-3)GlcNAc", "procedure,_shortened": "as §1"}, "[23]": {"biological_target": "Fuc(a1-2)[Gal(a1-3)]Gal(b1-3)GlcNAc(b1-2)Man(a1-3)[Fuc(a1-2)[Gal(a1-3)]Gal(b1-3)GlcNAc(b1-2)Man(a1-6)]Man(b1-4)GlcNAc(b1-4)GlcNAc", "procedure,_shortened": "as §1"}, "[24]": {"biological_target": "Fuc(a1-2)[Gal(a1-3)]Gal(b1-3)GlcNAc(b1-2)Man(a1-3)[Fuc(a1-2)[Gal(a1-3)]Gal(b1-3)GlcNAc(b1-2)Man(a1-6)]Man(b1-4)GlcNAc(b1-4)[Fuc(a1-6)]GlcNAc", "procedure,_shortened": "as §1"}, "[25]": {"biological_target": "Fuc(a1-2)[Gal(a1-3)]Gal(b1-3)GlcNAc(b1-3)GalNAc", "procedure,_shortened": "as §1"}, "[26]": {"biological_target": "Fuc(a1-2)[Gal(a1-3)]Gal(b1-3)GlcNAc(b1-6)GalNAc", "procedure,_shortened": "as §1"}, "[27]": {"biological_target": "Fuc(a1-2)[Gal(a1-3)]Gal(b1-4)Glc", "procedure,_shortened": "as §1"}, "[28]": {"biological_target": "Fuc(a1-2)[Gal(a1-3)]Gal(b1-4)GlcNAc", "procedure,_shortened": "as §1"}, "[29]": {"biological_target": "Fuc(a1-2)[Gal(a1-3)]Gal(b1-4)GlcNAc(b1-2)Man", "procedure,_shortened": "as §1"}, "[30]": {"biological_target": "Fuc(a1-2)[Gal(a1-3)]Gal(b1-4)GlcNAc(b1-2)Man(a1-3)[Fuc(a1-2)[Gal(a1-3)]Gal(b1-4)GlcNAc(b1-2)Man(a1-6)]Man(b1-4)GlcNAc(b1-4)GlcNAc", "procedure,_shortened": "as §1"}, "[31]": {"biological_target": "Fuc(a1-2)[Gal(a1-3)]Gal(b1-4)GlcNAc(b1-2)Man(a1-3)[Fuc(a1-2)[Gal(a1-3)]Gal(b1-4)GlcNAc(b1-2)Man(a1-6)]Man(b1-4)GlcNAc(b1-4)[Fuc(a1-6)]GlcNAc", "procedure,_shortened": "as §1"}, "[32]": {"biological_target": "Fuc(a1-2)[Gal(a1-3)]Gal(b1-4)GlcNAc(b1-3)GalNAc", "procedure,_shortened": "as §1"}, "[33]": {"biological_target": "Fuc(a1-2)[Gal(a1-3)]Gal(b1-4)GlcNAc(b1-3)[Fuc(a1-2)[Gal(a1-3)]Gal(b1-4)GlcNAc(b1-6)]GalNAc", "procedure,_shortened": "as §1"}, "[34]": {"biological_target": "Fuc(a1-2)[Gal(a1-3)]Gal(b1-4)GlcNAc(b1-6)GalNAc", "procedure,_shortened": "as §1"}, "[35]": {"biological_target": "Fuc(a1-2)[Gal(a1-3)]Gal(b1-4)[Fuc(a1-3)]Glc", "procedure,_shortened": "as §1"}, "[36]": {"biological_target": "Fuc(a1-2)[Gal(a1-3)]Gal(b1-4)[Fuc(a1-3)]GlcNAc", "procedure,_shortened": "as §1"}, "[37]": {"biological_target": "Fuc(a1-2)[Gal(a1-3)]Gal(b1-4)[Fuc(a1-3)]GlcNAc(b1-3)GalNAc", "procedure,_shortened": "as §1"}},
  "note": "The list shows a part of the results.",
  "data": [
    {"binder": "B1", "values": [
      {"measurement": "glycan array binding signal (z-score)", "setting": "[1]", "value": -0.949},
      {"measurement": "glycan array binding signal (z-score)", "setting": "[2]", "value": -0.664},
      {"measurement": "glycan array binding signal (z-score)", "setting": "[3]", "value": -0.134},
      {"measurement": "glycan array binding signal (z-score)", "setting": "[4]", "value": -0.72},
      {"measurement": "glycan array binding signal (z-score)", "setting": "[5]", "value": 0.009},
      {"measurement": "glycan array binding signal (z-score)", "setting": "[6]", "value": -0.3},
      {"measurement": "glycan array binding signal (z-score)", "setting": "[7]", "value": -0.35},
      {"measurement": "glycan array binding signal (z-score)", "setting": "[8]", "value": 0.148},
      {"measurement": "glycan array binding signal (z-score)", "setting": "[9]", "value": -0.455},
      {"measurement": "glycan array binding signal (z-score)", "setting": "[10]", "value": -0.436},
      {"measurement": "glycan array binding signal (z-score)", "setting": "[11]", "value": 1.98},
      {"measurement": "glycan array binding signal (z-score)", "setting": "[12]", "value": 0.672},
      {"measurement": "glycan array binding signal (z-score)", "setting": "[13]", "value": -0.336},
      {"measurement": "glycan array binding signal (z-score)", "setting": "[14]", "value": -0.779},
      {"measurement": "glycan array binding signal (z-score)", "setting": "[15]", "value": -0.343},
      {"measurement": "glycan array binding signal (z-score)", "setting": "[16]", "value": 0.043},
      {"measurement": "glycan array binding signal (z-score)", "setting": "[17]", "value": -0.531},
      {"measurement": "glycan array binding signal (z-score)", "setting": "[18]", "value": 0.125},
      {"measurement": "glycan array binding signal (z-score)", "setting": "[19]", "value": -0.534},
      {"measurement": "glycan array binding signal (z-score)", "setting": "[20]", "value": -0.08},
      {"measurement": "glycan array binding signal (z-score)", "setting": "[21]", "value": -0.145},
      {"measurement": "glycan array binding signal (z-score)", "setting": "[22]", "value": 0.229},
      {"measurement": "glycan array binding signal (z-score)", "setting": "[23]", "value": 0.541},
      {"measurement": "glycan array binding signal (z-score)", "setting": "[24]", "value": 0.595},
      {"measurement": "glycan array binding signal (z-score)", "setting": "[25]", "value": -0.384},
      {"measurement": "glycan array binding signal (z-score)", "setting": "[26]", "value": -0.187},
      {"measurement": "glycan array binding signal (z-score)", "setting": "[27]", "value": -0.404},
      {"measurement": "glycan array binding signal (z-score)", "setting": "[28]", "value": -0.518},
      {"measurement": "glycan array binding signal (z-score)", "setting": "[29]", "value": -0.318},
      {"measurement": "glycan array binding signal (z-score)", "setting": "[30]", "value": 1.24},
      {"measurement": "glycan array binding signal (z-score)", "setting": "[31]", "value": -0.302},
      {"measurement": "glycan array binding signal (z-score)", "setting": "[32]", "value": -0.069},
      {"measurement": "glycan array binding signal (z-score)", "setting": "[33]", "value": -0.617},
      {"measurement": "glycan array binding signal (z-score)", "setting": "[34]", "value": -0.524},
      {"measurement": "glycan array binding signal (z-score)", "setting": "[35]", "value": -0.426},
      {"measurement": "glycan array binding signal (z-score)", "setting": "[36]", "value": -0.363},
      {"measurement": "glycan array binding signal (z-score)", "setting": "[37]", "value": -0.27}
    ]}
  ]
}
